Reference: PMC4336329 (PLoS ONE, 2015)
Screen size: about 310,000 compounds; about 14,000 (4.5%) showed an effect of 50% or more. The effect is printed as a negative number. This is one part of the list.
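Also: peak tail current of the secondary pulse compared with the same well before compound.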

Each compound was assayed against human ether-à-go-go-related gene (hERG) potassium channel (human, UniProt Q12809) (assay: primary screen, population patch clamp on CHO cells stably expressing hERG).
human ether-à-go-go-related gene (hERG) potassium channel, sequence (Q12809 whole entry, looked up): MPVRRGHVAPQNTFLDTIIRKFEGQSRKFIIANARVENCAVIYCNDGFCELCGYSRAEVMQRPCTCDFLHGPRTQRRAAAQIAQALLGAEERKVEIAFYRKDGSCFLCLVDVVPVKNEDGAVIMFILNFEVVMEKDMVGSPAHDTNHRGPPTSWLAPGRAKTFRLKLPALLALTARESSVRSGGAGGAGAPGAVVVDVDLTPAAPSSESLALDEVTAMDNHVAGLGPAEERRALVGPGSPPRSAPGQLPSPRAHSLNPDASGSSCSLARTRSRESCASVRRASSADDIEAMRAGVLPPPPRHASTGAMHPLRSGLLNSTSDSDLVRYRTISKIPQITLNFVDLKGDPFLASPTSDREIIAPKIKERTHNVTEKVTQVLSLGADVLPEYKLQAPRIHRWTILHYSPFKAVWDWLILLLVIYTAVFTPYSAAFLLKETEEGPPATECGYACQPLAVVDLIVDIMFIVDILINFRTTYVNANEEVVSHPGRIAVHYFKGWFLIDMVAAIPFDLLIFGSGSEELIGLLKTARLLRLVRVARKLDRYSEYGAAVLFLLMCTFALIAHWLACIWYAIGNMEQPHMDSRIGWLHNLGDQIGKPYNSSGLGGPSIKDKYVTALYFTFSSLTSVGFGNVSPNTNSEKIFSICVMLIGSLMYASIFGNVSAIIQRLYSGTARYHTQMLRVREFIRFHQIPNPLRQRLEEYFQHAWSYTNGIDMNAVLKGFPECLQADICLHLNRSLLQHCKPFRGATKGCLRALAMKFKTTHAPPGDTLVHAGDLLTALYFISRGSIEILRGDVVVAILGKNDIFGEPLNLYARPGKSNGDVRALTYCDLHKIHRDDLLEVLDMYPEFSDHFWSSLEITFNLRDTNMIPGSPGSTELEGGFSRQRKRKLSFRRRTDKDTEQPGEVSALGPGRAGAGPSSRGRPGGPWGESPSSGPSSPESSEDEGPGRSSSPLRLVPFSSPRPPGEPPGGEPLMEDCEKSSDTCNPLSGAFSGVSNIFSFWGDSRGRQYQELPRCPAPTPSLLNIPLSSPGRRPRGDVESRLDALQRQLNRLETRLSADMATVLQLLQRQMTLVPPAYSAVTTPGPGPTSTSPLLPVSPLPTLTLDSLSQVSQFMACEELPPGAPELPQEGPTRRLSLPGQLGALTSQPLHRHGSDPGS
For CCn1c(CNC(=O)COc2ccc(C(C)C)cc2)nnc1SCC(=O)Nc1ccccc1C(C)C, the “hERG current change (%, negative = inhibition) at 10uM” value was -55.1%.
CC(C)CCN1CCN(CC(c2ccccc2)c2ccccc2)CC1CCO (centres unmarked) was tested, and the “hERG current change (%, negative = inhibition) at 10uM” value was -82.3%.
In the case of O=C(NCc1cccnc1)C(=O)NCC1OCCCN1S(=O)(=O)c1ccccc1 (centres unmarked), the “hERG current change (%, negative = inhibition) at 10uM” value is reported as 18.6%.
O=c1sc(Nc2ccccc2)nc2ccsc12 was tested, and the “hERG current change (%, negative = inhibition) at 10uM” value was -5.98%.
With CCOc1ccc(C(=O)Nc2ccc(S(=O)(=O)Nc3nccc(C)n3)cc2)cc1OCC the “hERG current change (%, negative = inhibition) at 10uM” value was -6.53%.
In the case of O=C(COc1ccccc1)Nc1c2c(nn1-c1ccccc1)CS(=O)C2 (centres unmarked), the “hERG current change (%, negative = inhibition) at 10uM” value is reported as -1.23%.
In the case of CC(=O)c1cc2c(cc1NC(=O)c1ccco1)OCCO2, the “hERG current change (%, negative = inhibition) at 10uM” value is reported as 12.1%.
In the case of COC(=O)c1ccc(NC(=S)N2CCN(C(=O)c3ccco3)CC2)cc1, the “hERG current change (%, negative = inhibition) at 10uM” value is reported as -4.94%.
For COc1cccc(CN(C)C(=O)c2sccc2-c2ccccc2)c1OC, the “hERG current change (%, negative = inhibition) at 10uM” value was -14%.
With Cc1cccnc1-n1c(CCN2C(=O)c3ccccc3C2=O)nc2ccccc2c1=O the “hERG current change (%, negative = inhibition) at 10uM” value was 4.82%.
With O=C1c2ccccc2C(=O)N1c1cccnc1 the “hERG current change (%, negative = inhibition) at 10uM” value was 2.01%.
For COc1ccc(-n2c(C)cc(C(=O)COc3ccc(C)nc3[N+](=O)[O-])c2C)cc1, the “hERG current change (%, negative = inhibition) at 10uM” value was -22.8%.
In the case of CC(=O)c1ccc(OCC(=O)N2CCCC(N(C)Cc3ccccc3)C2)cc1 (centres unmarked), the “hERG current change (%, negative = inhibition) at 10uM” value is reported as -29.1%.
CCOCCCn1c(SCC(=O)Nc2ccc3[nH]c(=O)[nH]c3c2)nc2ccccc2c1=O was tested, and the “hERG current change (%, negative = inhibition) at 10uM” value was 7.61%.
In the case of COc1ccc(CCNC(=O)C2CCN(S(C)(=O)=O)CC2)cc1, the “hERG current change (%, negative = inhibition) at 10uM” value is reported as -9.7%.
In the case of CCCn1c(SCCc2ccccc2)nc2c1c(=O)[nH]c(=O)n2C, the “hERG current change (%, negative = inhibition) at 10uM” value is reported as -14.4%.
With O=C(NCCN1CCCCC1)Nc1ccccc1Cl the “hERG current change (%, negative = inhibition) at 10uM” value was 19.7%.
For O=C(CN1C(=O)C2C3C=CC(C3)C2C1=O)Nc1nc(-c2ccccn2)cs1 (centres unmarked), the “hERG current change (%, negative = inhibition) at 10uM” value was 2.18%.
For CC(C)c1[nH]nc2c1C(c1cccnc1)C(C#N)=C(N)O2 (centres unmarked), the “hERG current change (%, negative = inhibition) at 10uM” value was 3.28%.
For CC(C)CC(=O)Nc1nc2c(c(=O)[nH]1)CCCC2, the “hERG current change (%, negative = inhibition) at 10uM” value was 17.9%.
O=C(CCNC(=O)c1ccccc1Cl)Nc1ccc2c(c1)OCO2 was tested, and the “hERG current change (%, negative = inhibition) at 10uM” value was 9.88%.
With FC(F)(F)c1cc(-c2ccccc2)nc(NCc2cccnc2)n1 the “hERG current change (%, negative = inhibition) at 10uM” value was -1.1%.
In the case of COc1cc(/C=C/C(=O)OCC(=O)N2CCc3ccccc3C2)ccc1O, the “hERG current change (%, negative = inhibition) at 10uM” value is reported as -16.3%.
CCN(CC)C(=O)CN1C(=O)c2cccc3cccc(c23)C1=O was tested, and the “hERG current change (%, negative = inhibition) at 10uM” value was 9.78%.
In the case of COc1ccccc1C(=O)Nc1cccc2cccnc12, the “hERG current change (%, negative = inhibition) at 10uM” value is reported as 10.7%.
With O=C1CC(c2ccccc2F)C2=C(COC2=O)N1 (centres unmarked) the “hERG current change (%, negative = inhibition) at 10uM” value was 1.43%.
With CCOc1ccccc1NC(=O)CSc1nnc(CNC(=O)c2c(F)cccc2Cl)o1 the “hERG current change (%, negative = inhibition) at 10uM” value was -8.82%.
For Cc1noc(C)c1CC(=O)N1CCCC(N2CCN(c3ccccc3F)CC2)C1 (centres unmarked), the “hERG current change (%, negative = inhibition) at 10uM” value was 3.91%.
In the case of CC1=CC(C)C(/C=N/n2cnnc2)C(C)C1 (centres unmarked), the “hERG current change (%, negative = inhibition) at 10uM” value is reported as -3.91%.
CC1CCCN(c2ccc([N+](=O)[O-])cc2C(=O)c2ccccc2)C1 (centres unmarked) was tested, and the “hERG current change (%, negative = inhibition) at 10uM” value was -6.64%.
CCOc1ccc(NC(=O)C2C3CCC4C(CCC32)C4(Cl)Cl)cc1 (centres unmarked) was tested, and the “hERG current change (%, negative = inhibition) at 10uM” value was 14.5%.
c1ccc(CSc2nnnn2-c2ccc3c(c2)OCCO3)nc1 was tested, and the “hERG current change (%, negative = inhibition) at 10uM” value was -2.3%.
In the case of CC1CC(=O)N(c2ccc(N(C)Cc3ccccc3)c([N+](=O)[O-])c2)C1=O (centres unmarked), the “hERG current change (%, negative = inhibition) at 10uM” value is reported as -10.9%.
In the case of Cc1ccc(SCc2nc3ccccc3n2CC(=O)Nc2ccc(Cl)cc2)cc1, the “hERG current change (%, negative = inhibition) at 10uM” value is reported as -8.31%.
In the case of O=c1c2ccccc2nc(N2CCCC2)n1-c1ccc(Cl)cc1, the “hERG current change (%, negative = inhibition) at 10uM” value is reported as -3.18%.
For FC(F)(F)c1ccnc(N2CCN(Cc3cnc(-c4ccccc4)[nH]3)CC2)c1, the “hERG current change (%, negative = inhibition) at 10uM” value was -34.2%.
In the case of CCOC(=O)N1CCC(NC(=O)c2cc(C(=O)NC3CCCC3)ccc2CO)CC1, the “hERG current change (%, negative = inhibition) at 10uM” value is reported as 12.9%.
Cc1cc(NC(=O)c2ccc3c(c2)OCCO3)ccc1NC(=O)c1cc2ccccc2o1 was tested, and the “hERG current change (%, negative = inhibition) at 10uM” value was 1.3%.
With Cc1ccc(C(=O)/C=C/Nc2ccccc2C(N)=O)cc1 the “hERG current change (%, negative = inhibition) at 10uM” value was 13%.
Cc1noc(C)c1COC(=O)[C@H](C)NS(=O)(=O)c1ccc(Cl)c(Cl)c1 was tested, and the “hERG current change (%, negative = inhibition) at 10uM” value was -29.2%.
With CN(C1CCCCC1)S(=O)(=O)c1ccc(C(=O)O)cc1 the “hERG current change (%, negative = inhibition) at 10uM” value was 7.49%.
In the case of COc1ccc(OCC(=O)Nc2ccc(NC(=O)c3ccccc3Cl)c(OC)c2)cc1, the “hERG current change (%, negative = inhibition) at 10uM” value is reported as -17.4%.
For O=C(NN=C1CCCC1)C(=O)Nc1cccc(C(F)(F)F)c1, the “hERG current change (%, negative = inhibition) at 10uM” value was 4.28%.
COc1ccc(N(Cc2ccccc2)N=O)cc1 was tested, and the “hERG current change (%, negative = inhibition) at 10uM” value was -23.3%.
